40 molecules from the supplement of paper PMC9174493 can be followed below.

Some of the results follow. Single values of this set are uncertain. Values with irradiation are relative to irradiated vehicle.

One assay relates to A549-Dual. Description: ISRE reporter (Lucia luciferase) activity, viability-corrected, relative to vehicle (fold change vs vehicle); higher = more activation of STING-IRF / NF-kB immune response reporter. The following applies: 10 µM; irradiation: 8 Gy/4 fr.
`Nc1ncnc2c1ncn2C1OC(CO)C(O)C1O` (stereo not given) [Adenosine] had an ISRE reporter of 0.923.

With `CN(C)CCC=C1c2ccccc2C(C)(C)c2ccccc21.Cl` [Melitracen hydrochloride], the ISRE reporter amounted to 0.458.

Molecule `c1cnc(N2CCN(Cc3ccc4c(c3)OCO4)CC2)nc1` [Piribedil] returned an ISRE reporter of 0.52.

The molecule `CN(CCOc1ccc(NS(C)(=O)=O)cc1)CCc1ccc(NS(C)(=O)=O)cc1` [Dofetilide] came in with an ISRE reporter of 0.897.

The molecule `CCC1OC(=O)C(C)C(OC2CC(C)(OC)C(O)C(C)O2)C(C)C(OC2OC(C)CC(N(C)C)C2O)C(C)(O)CC(C)/C(=N/OCOCCOC)C(C)C(O)C1(C)O` (stereo not given) [Roxithromycin] yielded an ISRE reporter of 0.849.

For the molecule `C#CC1(O)CCC2C3CCC4=CC(=O)CCC4C3CCC21C` (stereo not given) [Norethindrone], the ISRE reporter was found to be 0.826.

For `CCCCCCCCOC(=O)c1cc(O)c(O)c(O)c1` [Octyl gallate], the ISRE reporter worked out at 0.0604.

For the molecule `COc1ccc(-c2cc(=O)c3c(O)cc(O)cc3o2)cc1O` [Diosmetin], the ISRE reporter was 0.655.

Molecule `CCC(C)C(N)C1=NCC(C(=O)NC(CC(C)C)C(=O)NC(CCC(=O)[O-])C(=O)NC(C(=O)NC2CCCCNC(=O)C(CC(N)=O)NC(=O)C(CC(=O)[O-])NC(=O)C(Cc3c[nH]cn3)NC(=O)C(Cc3ccccc3)NC(=O)C(C(C)CC)NC(=O)C(CCCN)NC2=O)C(C)CC)S1.[Zn+2]` (stereo not given) [Bacitracin Zinc] displayed an ISRE reporter of 0.728.

For `COc1ccc(NS(=O)(=O)c2ccc(N)cc2)nn1` [Sulfamethoxypyridazine], the ISRE reporter is 0.772.

Staying with this assay, now noted: 10 µM; irradiation: none.
`CC(C)(C)C(=O)Oc1ccc(S(=O)(=O)Nc2ccccc2C(=O)NCC(=O)[O-])cc1.O.O.O.O.[Na+]` [Sivelestat sodium tetrahydrate] showed an ISRE reporter of 1.15.

Turning to `COc1cccc(OC)c1C(=O)OCc1cc(O)ccc1OC1OC(CO)C(O)C(O)C1O` (stereo not given) [Curculigoside], the ISRE reporter was 0.813.

Molecule `CC(C)(C)NCC(O)COc1ccccc1C1CCCC1.CC(C)(C)NCC(O)COc1ccccc1C1CCCC1.O=S(=O)(O)O` (stereo not given) [Penbutolol Sulfate] showed an ISRE reporter of 0.689.

`Nc1cc[nH]c(=O)n1` [Cytosine] showed an ISRE reporter of 0.734.

`O=C(O)[C@@H]1C[C@@H](O)CN1` [L-Hydroxyproline] gave an ISRE reporter of 0.645.

`COc1ccc(CC(C)NCC(O)c2ccc(O)c(NC=O)c2)cc1.O=C(O)C(O)C(O)C(=O)O` (stereo not given) [Arformoterol Tartrate] yielded an ISRE reporter of 0.712.

On to `COc1ccc(NC(=O)c2ccc(C(=N)N(C)C)cc2)c(C(=O)Nc2ccc(Cl)cn2)c1.O=C(O)/C=C\C(=O)O` [Betrixaban maleate], for which the ISRE reporter was 0.919.

The molecule `COc1ccc2[nH]cc(CCNC(C)=O)c2c1` [Melatonin] returned an ISRE reporter of 0.728.

With `COC(=O)Nc1nc2ccc(Sc3ccccc3)cc2[nH]1` [Fenbendazole], the ISRE reporter was 1.08.

Turning to `CSc1ccc2c(c1)N(CCC1CCCCN1C)c1ccccc1S2.Cl` (stereo not given) [Thioridazine hydrochloride], the ISRE reporter worked out at 1.62.

Regarding `O=C(c1ccc(F)cc1)C1CCN(CCn2c(=O)[nH]c3ccccc3c2=O)CC1` [Ketanserin], the ISRE reporter is 0.682.

In the case of `Cc1c(-c2ccccc2)oc2c(C(=O)OCCN3CCCCC3)cccc2c1=O.Cl` [Flavoxate HCl], the ISRE reporter was 0.83.

`Nc1nc(=O)n(C2CSC(CO)O2)cc1F` (stereo not given) [Emtricitabine] yielded an ISRE reporter of 0.614.

`COCC1CC(c2ncc(-c3ccc4c(c3)COc3cc5c(ccc6[nH]c(C7CCC(C)N7C(=O)C(NC(=O)OC)C(C)C)nc65)cc3-4)[nH]2)N(C(=O)C(NC(=O)OC)c2ccccc2)C1` (stereo not given) [Velpatasvir]: the ISRE reporter was 1.27.

For the molecule `NC(Cc1cc(I)c(Oc2ccc(O)c(I)c2)c(I)c1)C(=O)O` (stereo not given) [Triiodothyronine], the ISRE reporter turned out to be 0.46.

`Cl.NCCCC[C@H](N)C(=O)O` [L-Lysine hydrochloride] returned an ISRE reporter of 0.707.

On to `COC(=O)C1=C(C)NC(C)=C(C(=O)OCC(C)C)C1c1ccccc1[N+](=O)[O-]` (stereo not given) [Nisoldipine], for which the ISRE reporter was found to be 0.422.

As to `CC(C)(C)NC(=O)NC(C(=O)N1CC2C(C1C(=O)NC(CC1CCC1)C(=O)C(N)=O)C2(C)C)C(C)(C)C` (stereo not given) [Boceprevir], the ISRE reporter is 1.1.

`O=c1n(CCCN2CCN(c3cccc(Cl)c3)CC2)nc2ccccn12` [Trazodone] yielded an ISRE reporter of 0.844.

For `CNC1C(O)C(OC2C(N)CC(N)C(OC3OC(CN)=CCC3N)C2O)OCC1(C)O.CNC1C(O)C(OC2C(N)CC(N)C(OC3OC(CN)=CCC3N)C2O)OCC1(C)O.O=S(=O)(O)O.O=S(=O)(O)O.O=S(=O)(O)O.O=S(=O)(O)O.O=S(=O)(O)O` (stereo not given) [Sisomicin sulfate], the ISRE reporter came out at 0.884.

Molecule `Clc1ccc(C(Cn2ccnc2)OCc2ccsc2Cl)c(Cl)c1` (stereo not given) [Tioconazole] displayed an ISRE reporter of 0.443.

For `COc1ccc(-c2coc3cc(O)ccc3c2=O)cc1` [Formononetin], the ISRE reporter worked out at 0.355.

Turning to `Cl.N=C(N)N` [Guanidine HCl], the ISRE reporter came to 0.83.

In turn, `N#C/C(=C1/SCC(c2ccc(Cl)cc2Cl)S1)n1ccnc1` (stereo not given) [Luliconazole] gave an ISRE reporter of 0.92.

`CC1CCOC2Cn3cc(C(=O)NCc4ccc(F)cc4F)c(=O)c([O][Na])c3C(=O)N12` (stereo not given) [Dolutegravir Sodium] gave an ISRE reporter of 0.654.

In turn, `CCN(CC)C(=O)C1(c2ccccc2)CC1CN.Cl` (stereo not given) [Levomilnacipran Hydrochloride] showed an ISRE reporter of 0.967.

`CC/C=C\C/C=C\C/C=C\CCCCCCCC(=O)OC` [Methyl linolenate] displayed an ISRE reporter of 0.62.

Take `CC1(OC(=O)/C=C/c2ccccc2)CC(O)C2(O)C=COC(OC3OC(CO)C(O)C(O)C3O)C12` (stereo not given) [Harpagoside]: the ISRE reporter worked out at 0.799.

Regarding `CCCCCN(C)CCC(O)(P(=O)(O)O)P(=O)(O)O.O.[NaH]` [Ibandronate sodium], the ISRE reporter is 0.963.

`CC(C)=CCCC(C)(OC1OC(COC2OC(CO)C(O)C(O)C2O)C(O)C(O)C1O)C1CCC2(C)C1C(O)CC1C3(C)CCC(OC4OC(CO)C(O)C(O)C4OC4OC(CO)C(O)C(O)C4O)C(C)(C)C3CCC12C` (stereo not given) [Ginsenoside Rb1] registered an ISRE reporter of 0.53.

For the molecule `Nc1ncnc2c1ncn2C1OC(CO)C(O)C1O` (stereo not given) [Adenosine], the ISRE reporter was found to be 0.795.

`CN(C)CCC=C1c2ccccc2C(C)(C)c2ccccc21.Cl` [Melitracen hydrochloride] came in with an ISRE reporter of 1.17.

With `c1cnc(N2CCN(Cc3ccc4c(c3)OCO4)CC2)nc1` [Piribedil], the ISRE reporter worked out at 0.803.

In turn, `CN(CCOc1ccc(NS(C)(=O)=O)cc1)CCc1ccc(NS(C)(=O)=O)cc1` [Dofetilide] displayed an ISRE reporter of 1.08.

`CCC1OC(=O)C(C)C(OC2CC(C)(OC)C(O)C(C)O2)C(C)C(OC2OC(C)CC(N(C)C)C2O)C(C)(O)CC(C)/C(=N/OCOCCOC)C(C)C(O)C1(C)O` (stereo not given) [Roxithromycin]: the ISRE reporter amounted to 0.938.

Consider `C#CC1(O)CCC2C3CCC4=CC(=O)CCC4C3CCC21C` (stereo not given) [Norethindrone], for which the ISRE reporter was 0.997.

`CCCCCCCCOC(=O)c1cc(O)c(O)c(O)c1` [Octyl gallate] gave an ISRE reporter of 0.186.

As for `COc1ccc(-c2cc(=O)c3c(O)cc(O)cc3o2)cc1O` [Diosmetin], the ISRE reporter turned out to be 0.842.

`CCC(C)C(N)C1=NCC(C(=O)NC(CC(C)C)C(=O)NC(CCC(=O)[O-])C(=O)NC(C(=O)NC2CCCCNC(=O)C(CC(N)=O)NC(=O)C(CC(=O)[O-])NC(=O)C(Cc3c[nH]cn3)NC(=O)C(Cc3ccccc3)NC(=O)C(C(C)CC)NC(=O)C(CCCN)NC2=O)C(C)CC)S1.[Zn+2]` (stereo not given) [Bacitracin Zinc] came in with an ISRE reporter of 0.742.

In the case of `COc1ccc(NS(=O)(=O)c2ccc(N)cc2)nn1` [Sulfamethoxypyridazine], the ISRE reporter was 0.828.
